In the supplement of paper PMC4967469:
Lines with a small IC50 respond at low doses; where the fit passes the top or lowest dose, that dose stands as a limit. For AUC the same curve is integrated over the 256-fold range of doses and scaled to a fraction: 1 means no effect, lower means more sensitive. The top dose, if marked as inferred, was calculated from the reported fits.

Legend:
Assay in all cases: Viability of human cancer cell lines after 72 h of drug (GDSC screen)
SGC0946 = compound: CC(C)N(CCCNC(=O)Nc1ccc(C(C)(C)C)cc1)C[C@H]1O[C@@H](n2cc(Br)c3c(N)ncnc32)[C@H](O)[C@@H]1O [SGC0946]; settings: top dose 0.5 µM; top dose inferred
Description: (§1)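 Human cancer cell lines in 384-well plates, medium with 10% serum, drug for 72 h over a 256-fold dose range (nine 2-fold or five 4-fold steps up to the top dose). Adherent lines were fixed and stained with the nucleic acid dye Syto60, suspension lines read with resazurin; signal relative to control wells, capped at 0 and 100%. One two-parameter sigmoid per drug and line, fitted in a mixed model over all curves with the slope shared within a line.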

Bryostatin 1 = compound: CCC/C=C/C=C/C(=O)O[C@H]1/C(=C/C(=O)OC)C[C@H]2C[C@H]([C@@H](C)O)OC(=O)C[C@H](O)C[C@@H]3C[C@H](OC(C)=O)C(C)(C)[C@](O)(C[C@@H]4C/C(=C/C(=O)OC)C[C@H](/C=C/C(C)(C)[C@]1(O)O2)O4)O3 [Bryostatin 1]; settings: top dose 0.008 µM; top dose inferred
Description: as §1

GW-2580 = compound: COc1ccc(COc2ccc(Cc3cnc(N)nc3N)cc2OC)cc1 [GW-2580]; settings: top dose 20 µM; top dose inferred
Description: as §1

Lenalidomide = compound: Nc1cccc2c1CN(C1CCC(=O)NC1=O)C2=O [Lenalidomide]; settings: top dose 5 µM; top dose inferred
Description: as §1

Cell Line | AUC (SGC0946) | IC50 (SGC0946) [µM] | AUC (Bryostatin 1) | IC50 (Bryostatin 1) [µM] | AUC (GW-2580) | IC50 (GW-2580) [µM] | AUC (Lenalidomide) | IC50 (Lenalidomide) [µM]
H2722 (mesothelioma, adherent) | 0.982 | > 0.5 | 0.974 | > 0.008 | 0.983 | > 20 | 0.983 | > 5
H2731 (mesothelioma, adherent) | 0.958 | > 0.5 | 0.969 | > 0.008 | 0.899 | > 20 | 0.979 | > 5
H2795 (mesothelioma, adherent) | 0.983 | > 0.5 | 0.88 | > 0.008 | 0.986 | > 20 | 0.947 | > 5
H2869 (mesothelioma, adherent) | 0.978 | > 0.5 | 0.973 | > 0.008 | 0.974 | > 20 | 0.972 | > 5
H3118 (head and neck, adherent) | 0.981 | > 0.5 | 0.981 | > 0.008 | 0.982 | > 20 | 0.977 | > 5
H3255 (lung adenocarcinoma, adherent) | 0.981 | > 0.5 | 0.978 | > 0.008 | 0.98 | > 20 | 0.984 | > 5
HA7-RCC (kidney, adherent) | 0.982 | > 0.5 | 0.949 | > 0.008 | 0.979 | > 20 | 0.985 | > 5
HAL-01 (lymphoblastic leukaemia, suspension) | 0.985 | > 0.5 | 0.989 | > 0.008 | 0.989 | > 20 | 0.975 | > 5
HARA (lung squamous cell carcinoma, adherent) | 0.955 | > 0.5 | 0.971 | > 0.008 | 0.98 | > 20 | 0.926 | > 5
HC-1 (hairy cell leukaemia, suspension) | 0.984 | > 0.5 | 0.984 | > 0.008 | 0.987 | > 20 | 0.987 | > 5
HCC38 (breast, adherent) | 0.984 | > 0.5 | 0.98 | > 0.008 | 0.984 | > 20 | 0.986 | > 5
HCC70 (breast, adherent) | 0.987 | > 0.5 | 0.935 | > 0.008 | 0.988 | > 20 | 0.984 | > 5
HCC1143 (breast, adherent) | 0.966 | > 0.5 | 0.913 | > 0.008 | 0.98 | > 20 | 0.976 | > 5
HCC1395 (breast, adherent) | 0.981 | > 0.5 | 0.968 | > 0.008 | 0.985 | > 20 | 0.984 | > 5
HCC1419 (breast, adherent) | 0.98 | > 0.5 | 0.975 | > 0.008 | 0.974 | > 20 | 0.954 | > 5
HCC1428 (breast, adherent) | 0.986 | > 0.5 | 0.965 | > 0.008 | 0.988 | > 20 | 0.983 | > 5
HCC1500 (breast, adherent) | 0.984 | > 0.5 | 0.987 | > 0.008 | 0.987 | > 20 | 0.985 | > 5
HCC1569 (breast, adherent) | 0.978 | > 0.5 | 0.932 | > 0.008 | 0.973 | > 20 | 0.978 | > 5
HCC1937 (breast, adherent) | 0.97 | > 0.5 | 0.977 | > 0.008 | 0.985 | > 20 | 0.952 | > 5
HCC1954 (breast, adherent) | 0.983 | > 0.5 | 0.921 | > 0.008 | 0.976 | > 20 | 0.978 | > 5
HCC2157 (breast, suspension) | 0.96 | > 0.5 | 0.985 | > 0.008 | 0.948 | > 20 | 0.979 | > 5
HCC2218 (breast, suspension) | 0.98 | > 0.5 | 0.983 | > 0.008 | 0.922 | > 20 | 0.977 | > 5
HCC-15 (lung squamous cell carcinoma, adherent) | 0.968 | > 0.5 | 0.963 | > 0.008 | 0.98 | > 20 | 0.968 | > 5
HCC-44 (lung adenocarcinoma, adherent) | 0.985 | > 0.5 | 0.904 | > 0.008 | 0.977 | > 20 | 0.981 | > 5
HCC-56 (large intestine, adherent) | 0.986 | > 0.5 | 0.983 | > 0.008 | 0.986 | > 20 | 0.987 | > 5
HCC-78 (lung adenocarcinoma, adherent) | 0.955 | > 0.5 | 0.967 | > 0.008 | 0.961 | > 20 | 0.981 | > 5
HCC-827 (lung adenocarcinoma, adherent) | 0.983 | > 0.5 | 0.944 | > 0.008 | 0.98 | > 20 | 0.98 | > 5
HCT-15 (large intestine, adherent) | 0.985 | > 0.5 | 0.97 | > 0.008 | 0.981 | > 20 | 0.985 | > 5
HD-MY-Z (Hodgkin lymphoma, adherent) | 0.983 | > 0.5 | 0.981 | > 0.008 | 0.98 | > 20 | 0.975 | > 5
HDLM-2 (Hodgkin lymphoma, suspension) | 0.983 | > 0.5 | 0.986 | > 0.008 | 0.982 | > 20 | 0.989 | > 5
